Our source for the self-cleavage values is the RNAGym collection of RNA variant scans (doi:10.7554/elife.90254).

Read counts are not given, so values of variants with three or more changes are uncertain.

Sequences and labels used below:
B1: LINE1-mini (parent)
chain: GGCAGAGCUCAACACAGCGUGGCAAAGUGGCUGUGGCUAGACUGCC

The variants in the data set derive from B1. In words: self-cleavage, relative activity (ratio to wild type); higher = more cleavage; in vitro, sequencing; the parent is a self-cleaving ribozyme.
For the variant GUAAGAGCUCAACACAGCGUGGCAAAGUGGCUGUGUCUAGACCGCC [G2U C3A G36U U43C], the self-cleavage stood at 0.03. On to GUGAGAGCUCAACACAGCGUGGCAAAGUGUCUGUGGCUAAACUGCC [G2U C3G G30U G40A], for which the self-cleavage was 0.22.

For GUCAGAGUUCAACACAGCGUGGCAAAGUGGCUAUGGCUAGACUGCC [G2U C8U G33A], the self-cleavage was determined as 0.03. GUCAGAGAUCAACACAGCGUGGCGAAGUGGCUAUGGCUAGACUGCC [G2U C8A A24G G33A]: the self-cleavage stood at 0.11. As to GUCAGAGUUCAACACAACGUGGCAAAGUGGCUGUGGCUAGACUGCC [G2U C8U G17A], the self-cleavage was determined as 0.07.

On to GUCAGAGCUAAACACAGCGUGCCAAAGUGGCUAUGGCUAGACUGCC [G2U C10A G22C G33A], for which the self-cleavage worked out at 0.02. In the case of GUAAGAGGUCAACACAGCGUGGCAAAGUGGCUGUAGAUAGACUGCC [G2U C3A C8G G35A C37A], the self-cleavage stood at 0.21. With GUAAGAGCGCAAUACAGCGUGGCAAAGUGGCUGUGGCUAGACUGCC [G2U C3A U9G C13U], the self-cleavage is 0.01.

With GUCAGAGAUCAACAUAGCGUGGCAAAGUGACCGUGGCUAGACUGCC [G2U C8A C15U G30A U32C], the self-cleavage stood at 0.05.

Regarding GUAAGAGCUCAACACAGAGUGGCAAAGUGGCUGUGGCUAGACUACC [G2U C3A C18A G44A], the self-cleavage was 0.23. The value for GUUAGAGCUAAACACAGCGCGGCAAAGUGGCUGUGGCUAGACUGCC [G2U C3U C10A U20C] was 0.06.

On to GUGAGAGCUCAACGCAGCGUGGCAAAGUGGCUCUGGCUAGACUGCC [G2U C3G A14G G33C], for which the self-cleavage is 0.02.

Regarding GUUAGGGCUAAACACAGCGUGGCAAAGUGGCUGUGGCUAGAGGGCC [G2U C3U A6G C10A C42G U43G], the self-cleavage came to 0.

For GUUAGAGCUGAACACAGCGUGGCAAAGUGGCUGUGGGUAGACUGCA [G2U C3U C10G C37G C46A], the self-cleavage was 0.01. In the case of GUGAGAGCUCAACACAGUUUGGCAAAGUGGCUGUGGCUAGACUGCA [G2U C3G C18U G19U C46A], the self-cleavage is 0.06. For the variant GUCAGAGGUCAACACAGCGUGGCAAAGUGUCUGUGGCUGGACUGCC [G2U C8G G30U A39G], the self-cleavage amounted to 0.04.

Regarding GUAAGAGCUCAACACAGCGUGGCAAAGUGGCUGUGGCUAGACUGCU [G2U C3A C46U], the self-cleavage was 0.07. As to GUCAGAGAUCAACGUAGCGUGGCAAAGUGGCUGUGGCUAGCCUGCC [G2U C8A A14G C15U A41C], the self-cleavage was 0.01. Take GUUAGAGCUCAAUACAGCGUGGCAAAGUGCCUGUGGCUAGUCUGCC [G2U C3U C13U G30C A41U]: the self-cleavage came out at 0.05. Take GUCAGAGAUCAACACAGCAUGGCUAAGUGGCUGUGGGUAGACUGCC [G2U C8A G19A A24U C37G]: the self-cleavage was determined as 0.21. GUUAGAGCUCAACAUAGCGUGGCAAAGUGACUGUGACUAGACUGCC [G2U C3U C15U G30A G36A]: the self-cleavage was determined as 0.1. As to GUCAGAGUUCAACACAGCGUUGCAAAGUGGCUGUGGCUACACUGCC [G2U C8U G21U G40C], the self-cleavage is 0.11.

In the case of GUCAGAGCUAACCCCAGCGUGGCAAAGUGGCUGUGGCUAGACUGCC [G2U C10A A12C A14C], the self-cleavage was found to be 0.

With GUAAGAGUUCAACACAGCGUGGCAAAGUGGCUGUGGCUAGACAGCU [G2U C3A C8U U43A C46U], the self-cleavage came to 0.41.

Take GUAAGAGCUCACCACAGCGUGGCAAAGUGGCUGUGGCUAGACUGCC [G2U C3A A12C]: the self-cleavage was 0.01. On to GUCAGAGAUCAACACAGCGUGGCAAACUGGCUGUUGCUAGACUGCC [G2U C8A G27C G35U], for which the self-cleavage is 0.04. Turning to GUCAGAGCUACACACAGCGUGGCAAAGUGGCUGUGGUUAGACUGCG [G2U C10A A11C C37U C46G], the self-cleavage was 0.01.

Regarding GUAAGAGCUCAACACAGCCUGGCAAAGUGGCUGUGGCUAGACUGCC [G2U C3A G19C], the self-cleavage was 0.2.

As to GUCAGAGUUCAACAUAGCGUGGCAAAGUGGCUGUGUCUUGACCGCC [G2U C8U C15U G36U A39U U43C], the self-cleavage is 0.04.

With GUCAGAGCUAAACACAGCGUAGCAAAGUGGCUGUGGCUAGACUGCC [G2U C10A G21A], the self-cleavage stood at 0.03.

For GUCAGAGAUCAACACAGCGUGGCAAAGUGGCUUUGGCUAGACUGCC [G2U C8A G33U], the self-cleavage was 0.03.

Consider GUCAGAGCUCAACACAGCGUGGCAAAGUGGCUGUGGCUAGUCUGCA [G2U A41U C46A], for which the self-cleavage was found to be 0.05. With GUGAGAGCUCAACACAGCAUGCCUAAGUGGCCGUGGCUAGAUUGCC [G2U C3G G19A G22C A24U U32C C42U], the self-cleavage was 0.04. With GUAAUAGCACUAGACAGCGUGGCAAAGUGGCUGUGGCUAGACUGCC [G2U C3A G5U U9A A11U C13G], the self-cleavage was 0.01. The value for GUCAGAGCUAAACACAGCGUGGCCAAGUUGCUGUGGGUAGACUGCC [G2U C10A A24C G29U C37G] was 0.01; that for GUAAGAGCUCAGCACAGCGUGGCAAAGUGGCUGUGGCCCGACUGAC [G2U C3A A12G U38C A39C C45A] was 0.02; that for GUGAGAGCACAACACAGCGUGCCAAAGUGGUCGUGGCUAGACUGCC [G2U C3G U9A G22C C31U U32C] was 0.04. For the variant GUUAGAGCUCAACACAGCUUGACAAAGUGGCUGUGGCUAGACUGCC [G2U C3U G19U G22A], the self-cleavage came out at 0.18. Regarding GUAAGAGCUCAACACAGCGUGGCAAAGCGGCUGUGGCUAGACUGCC [G2U C3A U28C], the self-cleavage is 0.21. On to GUAAGAGCUCAACACAGCGUGGCAAAGAGGCUGUGGCUAGACUGCC [G2U C3A U28A], for which the self-cleavage turned out to be 0.53. GUUAGAGCUCAACACAGCGUGGCAAAGUGGCUGUGGCUAGACUGAG [G2U C3U C45A C46G]: the self-cleavage stood at 0.08.

In the case of GUCAGAGCUAAACACAGCGUGGUACAGUGGCUGUGGCUAGACUGCC [G2U C10A C23U A25C], the self-cleavage is 0.05.

Regarding GUCAGAGCUAAACACAGCAUGGGAAAGUGGCUGGGGCUAGACUGCC [G2U C10A G19A C23G U34G], the self-cleavage was 0.

GUCAGAGUUCAACACAGCGUGGCAAAGUGGCUGUUGCUAGACUGCC [G2U C8U G35U]: the self-cleavage stood at 0.12. On to GUCAGAGUUCAACACAGCGUGGCAAAGUGACUGUGGCUAGACUGCC [G2U C8U G30A], for which the self-cleavage came out at 0.04.

Consider GUCAGAGCUAAACACAGCGUGACAAAAUGGCUGUGGCUAGACUGCC [G2U C10A G22A G27A], for which the self-cleavage stood at 0.01. With GUUAGAGCUCGAAACUGCGUGACAAAGUGGCUGUGGCUAGACUGCC [G2U C3U A11G C13A A16U G22A], the self-cleavage was determined as 0.01.

Regarding GUCAGAGAUCAACACAGCGUGGCAAAGUGUCUGUCGCUAGACUGCC [G2U C8A G30U G35C], the self-cleavage is 0.08. For GUCAGAGCUAAACAAAGCGUGGCAAAGUGGCUGUGGCUAAACUGCC [G2U C10A C15A G40A] the value was 0.03. In the case of GUGAGUGGUCAGCACAGCGUGUCAAAGUGACUGUGGCUAGACUGCC [G2U C3G A6U C8G A12G G22U G30A], the self-cleavage worked out at 0.02. Consider GUUAGAGCUCAACACGUCGUGGCAAAGUGGCUGUGGCUAGACUGUC [G2U C3U A16G G17U C45U], for which the self-cleavage stood at 0.11.

Turning to GUAAGAGCUCAACACAGCGUGGCAAAGUGGGUGUGGCUAGACUGCC [G2U C3A C31G], the self-cleavage is 0.08. Consider GUUAGAGCUCAACACCGUUUGGCAAACUGGCUGUGGCUAGACUGCC [G2U C3U A16C C18U G19U G27C], for which the self-cleavage is 0.04. For the variant GUUAGAGUUCAACACAGCGUAGCAAAUUGGCUGUGGCUAGAUUGCU [G2U C3U C8U G21A G27U C42U C46U], the self-cleavage was found to be 0.07. The value for GUUAGAGCUCAACACAGCGUGGCAAAGUGACUGUGGCCAGCCUGCC [G2U C3U G30A U38C A41C] was 0.03; that for GUCAGAGCUAAACACAUCGUGGCAAAGUGGCUGUGGCUAGACUGCC [G2U C10A G17U] was 0.
